Data from the supplement of paper PMC3724861.
This is one part of the list.

Tested on: T1, Caupolican (Caup) homeodomain DNA-binding domain
T1 sequence: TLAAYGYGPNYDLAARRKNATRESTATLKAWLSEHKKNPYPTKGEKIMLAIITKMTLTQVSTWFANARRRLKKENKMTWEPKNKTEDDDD
Test: PBM E-score (8-mer, recovered from the published 9-mer minima) (E-score (dimensionless, -0.5 to 0.5)); Drosophila protein; higher = stronger relative binding preference, active = 0.31 or more
Method in brief: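 Caup's homeodomain DNA-binding domain (residues 214-303) was made by in vitro transcription and translation and applied at 100 nM to custom-designed protein binding microarrays. Each value is an enrichment score that gives relative binding preference for a short DNA word, with higher meaning stronger. The 8-mer values were recovered from published 9-mer scores, each of which was the minimum of its two constituent 8-mer scores. A cutoff of 0.31 marks candidate sites.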

PBM E-score, inactive:
ATCATCGG -0.0315
ATAACAAT 0.254
TAAGGGGA -0.0541
ACCCCCAC -0.29
ATAAAGAC 0.0582
ATTAAAAG 0.0735
ACTTATAG -0.0185
GTCGCGTA 0.0689
AAACGCGA 0.0379
ATCGCCAT -0.0401
ATCCGCTC -0.121
CGAAGTAC 0.155
AGTGATAT 0.0873
CATCGGCA -0.0473
CATCTTGG 0.0046
TGAGAACA 0.246
GAAGGGGC -0.165
CGAGAATA 0.0481
ACACACAC 0.242
GGATTACA 0.276
GCAGTACA 0.196
AGGGCGGG -0.169
AGACCAAT 0.0512
AGCGTACT 0.0252
AAGGCCAG -0.185
CTACCAAG 0.0145
CAACGAAG 0.0213
CCCCAAAG -0.329
GGAAATCA 0.0249
GTCGAGAA 0.0141
AGGTGCAA -0.076
GTGAAGAA -0.0329
ATATCTCC -0.0278
ATGGACAG 0.114
AAATCGCT -0.0232
CAGTAGCC -0.173
CCAATTTC 0.0186
CGATACAG 0.0506
AGAGTATG -0.0417
CCGGGAAG -0.197
AAGATCGC 0.0108
CCGTCCGA -0.219
ACACGTCC 0.212
GGTACTTA 0.0548
ATAGAGTC 0.0201
ACCTTTGC -0.0471
CCAGTGGG -0.228
GAACGAAA -0.0649
CCGTAGCA -0.0871
CATTGACG -0.00626
AGGTTAAC 0.0851
CCATCGTA 0.0855
ATTCGGGA -0.0483
CCCGGGAA -0.23
AATTCTTA 0.0898
ACCGCAAA -0.00912
ATTATCTG 0.12
CTGGAGGC -0.18
ATTGCGGC -0.0444
CTTTGCCA -0.134
AGTTTATC 0.144
GACAGACA 0.255
AACTGCGG -0.14
CGACAACG 0.168
AAGTTTGG -0.0482
ATCTTACG 0.0741
CCGCCGAG -0.203
AATAGAGG -0.0582
GGCCAAGA -0.12
CGTGAGAG -0.19
CCCTGCAG -0.199
CCTTCACG -0.0872
AACTAAGT -0.00681
CGTTTTGC -0.0139
ATGTGTCC 0.127
GGCTGGAA -0.0833
CCAAAGTC -0.146
CTGACAGC -0.0248
CTCGCACA -0.0236
GCTGGGGA -0.187
GCATTACA 0.267
CAAAAACC -0.0001
CAAGAAGA 0.0505
AAGAGTGT 0.0619
AAAACCCG -0.0849
CTATTCAC 0.0399
CAGCAATC 0.0661
TGGTACCA 0.0334
ACATCACT 0.303
CATCAACG -0.0414
GATAGGAC -0.0335
GGGTTAGA -0.0985
CGCAAGAG -0.088
GGATAGAC 0.0611
ACGGTACT 0.0745
GGGGCTAC -0.206
ACCTACAT 0.299
AAACACAC 0.243
TAATCCTA 0.0768
CACGAACC -0.0566
CAGGGTAA 0.02
CAGGATCA 0.0356
CCTACTAG 0.0878
CGCGGACC -0.198
GGTCAAGA 0.0615
ATATGGCG -0.00224
AGTGGATC -0.0168
CGGACATC 0.217
CGCCGAAA -0.103
TATGGAAA 0.0858
CACGTGAA 0.00852
AGCACACG 0.042
AAAATAAC 0.0794
GTCGGCAC -0.1
ACGAATGC 0.0248
ACTTTTCA 0.0643
AGGCAATC 0.0567
CCTTTGTA 0.138
CCACTGGG -0.184
ATCGCTTG -0.0165
CGGGATCA -0.0923
AAGTACGT 0.109
CATATCTC 0.0782
CACTCCGC -0.127
ACTTTCAG -0.0396
GCACTCCA -0.104
GCCGAGAC -0.106
CAGACAGA 0.0534
CATCCCAA 0.0667
GGTACGAC 0.0706
ACGATCAT 0.125
GGCTACTA 0.0331
CTCGATGC -0.114
AATCGCAC -0.0643
ATTGGGTA 0.0577
GAAAACGC -0.0485
CCACAGAA -0.00495
GATCGATA 0.154
GGTACATA 0.282
ATTTATTC 0.103
ACTAGAAC 0.156
ATGTGAGG 0.0921
GAATTTTA 0.0305
CTCATAGC -0.0726
ACTTGCCA 0.0184
CTCTTCGC -0.128
CAGGGGAG -0.158
CGGTTACG -0.126
CACTTAGG -0.0173
ATTATAGA 0.117
ACAAAAGG -0.0265
CTGAAGCA -0.0958
TAGCCTGA 0.0341
CCGCATCC -0.16
CTACCCAG -0.103
GCAACTCA 0.038
CCGGCGAC -0.197
ACAATAAC 0.173
AGGGTTCC -0.0703
GGCCCTTA -0.112
GGGCGAAA -0.115
TAGCAGGA -0.0158
AAGTTCTG 0.0453
CAGAGACC -0.146
AATAGAAG 0.0489
ATTCTGCC -0.161
CTCGCCTC -0.233
CGCGCGGA -0.104
CTGGATAC 0.0336
CTGCTCGC -0.11
CTTAGAAA -0.0449
GGTTAGAC 0.0284
AACCTCGG -0.148
ACCGAGCA -0.0935
ACTCGCCA -0.0459
ATCACCGC -0.014
AGTTAGAT 0.0521
AGAGACTG -0.161
GGAATGCA 0.00656
ACGAGTTG 0.117
ACGCGTTA 0.0271
GTTTATCA 0.111
AAGTAGAC 0.0547
CCCGAATA -0.0458
AAATTATT 0.16
TTCAACAA 0.299
CCAACTAG 0.0916
GCCGAACA 0.0642
AACCTGAA 0.0247
CATGGCAA -0.00298
TGCTGTAA 0.177
GGGCTTGA -0.151
CCAATTGC -0.095
ACACAGGG 0.0598
ACTTCGGG -0.124
CAAAGCAC -0.0185
CTGTCTTC -0.0198
AAAGTCCC -0.13
GGGGATCA -0.109
CGGCACGC -0.254
TAGCGGAA -0.111
ACAGCTAG -0.00013
ATCCACTG 0.0509
ACCTTGCT 0.0548
GTATTAAC 0.136
CGTGGGAA -0.0756
TGCCAAAA -0.00482
AAAGTTCA 0.0717
ACTTTACG 0.0969
GATAGAGC -0.0871
CACCGTCG -0.172
CCACTAAC 0.0845

PBM E-score, ≥ -0.00456:
AGCCCAAT

PBM E-score, ≥ 0.223:
TACTTGAA

PBM E-score, ≥ 0.149:
ATTAACGA

PBM E-score, ≥ -0.172:
AGGGGGAT

PBM E-score, ≥ 0.0356:
AAGCGATC

PBM E-score, ≥ 0.0125:
AAGCGAGT

PBM E-score, active:
ATATGTTG 0.324
AACATGTC 0.424
ACGACATG ≥ 0.416
AACATGAT ≥ 0.424
